Our source for the self-cleavage values is the RNAGym collection of RNA variant scans (doi:10.7554/elife.90254).

Read counts are not given, so values of variants with three or more changes are uncertain.

B1: LINE1-mini (parent)
chain: GGCAGAGCUCAACACAGCGUGGCAAAGUGGCUGUGGCUAGACUGCC

This data set covers variants of B1. Nature of the data set: self-cleavage, relative activity (ratio to wild type); higher = more cleavage; in vitro, sequencing; the parent is a self-cleaving ribozyme.
Turning to C3A C8A A12U C18A U28A, the self-cleavage is 0.27.

With C3A C23A A41G, the self-cleavage stood at 0.07.

C3A G5C G35C: the self-cleavage was 0.13.

Turning to C3A G5U U9G, the self-cleavage came to 0.3.

In the case of C3A G7U C8U A12C U28G A41C, the self-cleavage is 0.03.

With C3A C13U G30C G36C, the self-cleavage came out at 0.08.

Turning to C3A G7C A11G, the self-cleavage stood at 0.07.

Consider C3A C15A G30U, for which the self-cleavage is 0.31.

Consider C3A C10U A14C G33A A39U, for which the self-cleavage was 0.02.

For the variant C3A C8U A16U A24U, the self-cleavage is 0.94.

C3A G5C G17U C18U: the self-cleavage is 0.02.

C3A A6C C8A: the self-cleavage worked out at 0.31.

As to C3A A25G G27U G33A C42A, the self-cleavage turned out to be 0.02.

For C3A G5U C8U A12U U43C, the self-cleavage stood at 0.06.

On to C3A G5U A26U, for which the self-cleavage stood at 0.48.

On to C3A A24C G40A, for which the self-cleavage came out at 0.09.

With C3A C18U G29U C37A G40C, the self-cleavage worked out at 0.24.

Consider C3A C8U A24U G33A, for which the self-cleavage stood at 0.49.

In the case of C3A A6U A25G U28C, the self-cleavage was 0.13.

Regarding C3A C13G A25U U43A G44A, the self-cleavage was found to be 0.06.

As for C3A A11U G30A, the self-cleavage worked out at 0.08.

Take C3A A26C U34G: the self-cleavage came to 0.14.

Consider C3A A16C A26U, for which the self-cleavage was found to be 0.06.

C3A C13A G36A: the self-cleavage amounted to 2.9.

C3A G5A C42U U43A: the self-cleavage is 0.52.

Consider C3A A11G A24G C42G, for which the self-cleavage came out at 0.03.

For the variant C3A C8G G21C C31A G44A, the self-cleavage is 0.07.

With C3A A11C G44A, the self-cleavage is 0.06.

As for C3A G5U C37A C42G, the self-cleavage turned out to be 0.

C3A A6U C18A C45G: the self-cleavage worked out at 0.18.

For C3A G5A G7U C8G C13G G17A G40U, the self-cleavage was 0.76.

As for C3A A12G C18G C42G, the self-cleavage is 0.02.

Consider C3A C31A G33A, for which the self-cleavage amounted to 0.34.

C3A A12G C23A: the self-cleavage was 0.65.

For C3A G7A C13G C23U U34C, the self-cleavage was found to be 0.4.

With C3A C23A G30C C45A, the self-cleavage turned out to be 0.79.

Consider C3A G7C A16C C18G, for which the self-cleavage was 0.04.

With C3A C8A A14U C31U, the self-cleavage is 0.47.

Turning to C3A C8A C10U G17C A41U, the self-cleavage came out at 0.04.

For the variant C3A A6U U34C G40U G44A, the self-cleavage turned out to be 0.08.

Consider C3A A11G G19U A39G G44A, for which the self-cleavage was 0.03.

For C3A C8A C23G G36U, the self-cleavage was 0.4.

Consider C3A C42G U43G, for which the self-cleavage stood at 0.11.

In the case of C3A G7A C45G, the self-cleavage stood at 0.45.

Turning to C3A C8U U9G, the self-cleavage came to 0.35.

For C3A A14U G33U U34G, the self-cleavage came out at 0.04.

On to C3A C42U C46A, for which the self-cleavage was 0.04.

In the case of C3A A14G G17U G22C C31G G44A, the self-cleavage amounted to 0.02.

Regarding C3A A12C G17U C18G U28G A39U, the self-cleavage worked out at 0.

In the case of C3A C8U G21A U28A U34A G40A A41G, the self-cleavage turned out to be 0.08.

Take C3A G7A G22A: the self-cleavage was found to be 0.2.

Take C3A C23G C37U C42A: the self-cleavage amounted to 0.25.

As to C3A A12U A14U C42A, the self-cleavage came to 0.17.

Consider C3A G7U C8A G27A G33C, for which the self-cleavage is 0.3.

Consider C3A C10A C37U, for which the self-cleavage stood at 0.03.

For the variant C3A A6C C18G G40A G44A, the self-cleavage was found to be 0.06.

As for C3A G5C G33C, the self-cleavage was 0.08.

Consider C3A C13G C18A A25G, for which the self-cleavage was found to be 0.13.

Take C3A C8U U34A G44C: the self-cleavage was 0.18.

Regarding C3A C18G U38C, the self-cleavage was 0.04.

On to C3A C18A A25C G36C G40U, for which the self-cleavage was 0.05.

In the case of C3A A12G A24G G30C C42G U43G, the self-cleavage was found to be 0.09.

Turning to C3A A12C C13G C46U, the self-cleavage is 0.3.

Consider C3A C10A G29U, for which the self-cleavage worked out at 0.04.

Consider C3A G5A C23G G36C G44U, for which the self-cleavage turned out to be 0.24.

Turning to C3A A11G C18U G36U, the self-cleavage came to 0.02.

On to C3A G7U C13A G33U, for which the self-cleavage was determined as 0.08.

As to C3A A26U G33C G44C, the self-cleavage was found to be 0.02.

On to C3A G5C A26U C37G G44A, for which the self-cleavage turned out to be 0.12.

C3A A14G G27U: the self-cleavage was 0.38.

Regarding C3A C42A U43A, the self-cleavage is 0.1.

Regarding C3A A26C G35U, the self-cleavage worked out at 0.17.

In the case of C3A C13G G36U A39C, the self-cleavage was determined as 0.63.

Consider C3A C10U G27U U32G G36A C42G, for which the self-cleavage was 0.07.

For C3A C15G U34G, the self-cleavage came to 0.05.

Take C3A G5U C10A A14C A24U C42G: the self-cleavage came to 0.04.

Turning to C3A C23U U34A A39C, the self-cleavage turned out to be 0.02.

Regarding C3A A16U G35A, the self-cleavage came out at 0.12.

On to C3A C15G C45G, for which the self-cleavage was 0.08.

For C3A G5U G7U C15G A16U G22C, the self-cleavage was 0.08.

As for C3A C15G G30A U43A, the self-cleavage was 0.03.

As for C3A C10A A16U C18G, the self-cleavage was determined as 0.04.

In the case of C3A A6U C8A G19C, the self-cleavage turned out to be 0.36.

Take C3A C18G C45U: the self-cleavage came out at 0.1.

Turning to C3A A11C C13G G21C A41U C42U, the self-cleavage was found to be 0.01.

Consider C3A A11G C46A, for which the self-cleavage was determined as 0.01.

Turning to C3A C10A C37U C45U, the self-cleavage came out at 0.01.

On to C3A G7U A26G A41U, for which the self-cleavage was found to be 0.38.

Regarding C3A A12G C37U C45U, the self-cleavage was 0.09.

For the variant C3A G5U C18A G19C U28G G30C U38G C42A, the self-cleavage worked out at 0.

On to C3A A6G C10U G29A C31G G33C, for which the self-cleavage was 0.02.

Regarding C3A A12G A14G A16C, the self-cleavage was determined as 0.06.

C3A A6U G30U G33A G36U C46G: the self-cleavage is 0.1.

Regarding C3A C10A G22C, the self-cleavage worked out at 0.02.

As for C3A C18U G30U C42U, the self-cleavage stood at 0.13.

Take C3A C8A U9A A14U G17A G27U: the self-cleavage turned out to be 0.48.

On to C3A C15A A39U, for which the self-cleavage stood at 0.14.

On to C3A G5C C42A, for which the self-cleavage amounted to 0.05.

Consider C3A A14C U43C C45A, for which the self-cleavage was 0.23.

C3A C10U G19U G27C: the self-cleavage came to 0.08.

Take C3A G7C U20A A25U G36C C45A: the self-cleavage was found to be 0.03.

Consider C3A A12U G40A, for which the self-cleavage turned out to be 0.18.

In the case of C3A C23U A24G U28C G33A G44U, the self-cleavage was found to be 0.52.

On to C3A A12G C13U G17C G30A U38A C45G, for which the self-cleavage amounted to 0.01.

As to C3A C15U G21U A24U G30U, the self-cleavage was found to be 0.4.

For C3A A14U U20G C31A U43C, the self-cleavage is 0.05.

Consider C3A G5C U20G, for which the self-cleavage turned out to be 0.15.

With C3A C23U C46U, the self-cleavage came to 0.24.

On to C3A C23U C46A, for which the self-cleavage was 0.14.

For the variant C3A A11U C18U G30C U43C, the self-cleavage was determined as 0.04.

Turning to C3A A12U A14C G22U G27A U32G G40C, the self-cleavage was found to be 0.11.

For the variant C3A A39U C45A, the self-cleavage is 0.21.

As for C3A C18U G35C, the self-cleavage was found to be 0.11.

Consider C3A C15U U34C, for which the self-cleavage is 0.3.

Regarding C3A G5A C23A G29C, the self-cleavage was 0.05.

As for C3A G7C C13G C15U U32G U34A C45A, the self-cleavage worked out at 0.03.

Take C3A A12C C18A G29U C46U: the self-cleavage came out at 0.16.

Consider C3A C13A C15U, for which the self-cleavage is 0.44.

Turning to C3A A16C G19U U34C, the self-cleavage turned out to be 0.02.

Turning to C3A A24U G27C G29A G40C, the self-cleavage amounted to 0.1.

On to C3A A11U C13A U20A, for which the self-cleavage was determined as 0.06.

In the case of C3A C15A G35A C42G G44U, the self-cleavage was determined as 0.01.

For C3A A12C U34A U43A, the self-cleavage is 0.03.

C3A C15G U20A: the self-cleavage came to 0.05.

As to C3A G7A A24G U38C, the self-cleavage was found to be 0.51.

As to C3A A6U C10G G17A G21U A26G G33U, the self-cleavage came to 0.03.

C3A G7A G40C: the self-cleavage amounted to 0.16.

In the case of C3A A16C A24G U32A C37G, the self-cleavage is 0.1.

As to C3A C10U C15A A25C U34G G40C, the self-cleavage came to 0.07.

C3A G5A A12U A16U G21U A24C G40A: the self-cleavage worked out at 0.09.

With C3A A12G C23U G33U A41G, the self-cleavage worked out at 0.01.

Consider C3A C37U C42G, for which the self-cleavage came out at 0.07.

As to C3A A14G G19C G30U G40U A41G, the self-cleavage amounted to 0.43.

Consider C3A G5A U9G, for which the self-cleavage was found to be 0.7.

With C3A G5U C23A, the self-cleavage was 0.35.

For C3A G7C C31G A39C, the self-cleavage stood at 0.06.

As to C3A C37A G40U, the self-cleavage is 0.35.

C3A G7A C15A G30A U43C: the self-cleavage was 0.06.

For C3A G7U A12G A25U G29U G33U, the self-cleavage came to 0.13.

With C3A C10G G22U G40U, the self-cleavage is 0.02.

C3A A12C C45A: the self-cleavage was 0.02.

Take C3A A16U A41C: the self-cleavage turned out to be 0.08.

As to C3A A11U C23G, the self-cleavage is 0.06.

Take C3A C8U U9G U20A U43A: the self-cleavage came out at 0.12.

For C3A C13G C31G G36U G40U, the self-cleavage came out at 0.23.

For C3A C10G G21U U28A, the self-cleavage worked out at 0.09.

On to C3A A6G C10U G17U G29U, for which the self-cleavage was 0.1.

Take C3A A12G U20C U28A G35A G36U: the self-cleavage was found to be 0.26.

Regarding C3A A24C A25C, the self-cleavage came out at 0.15.

As for C3A C13A C42U, the self-cleavage was 0.12.

With C3A C23A G35A, the self-cleavage stood at 0.12.

Turning to C3A C15A G40U U43A G44A, the self-cleavage came out at 0.16.

As for C3A G5C C15U C23U, the self-cleavage amounted to 0.14.

For the variant C3A G7U G22A G33U C46A, the self-cleavage was 0.09.

In the case of C3A C10A G27C, the self-cleavage turned out to be 0.03.

Turning to C3A A6G C15G, the self-cleavage is 0.07.

With C3A A12U C37G A41U U43C, the self-cleavage was 0.06.

Consider C3A A6C G19C G30U G33U, for which the self-cleavage is 0.15.

With C3A A24U A41C U43G C45G, the self-cleavage worked out at 0.47.

As for C3A A11U C23G A39C C46U, the self-cleavage amounted to 0.01.

On to C3A C15A C18A A26G G44U, for which the self-cleavage came out at 0.07.

Regarding C3A C10U G40C, the self-cleavage turned out to be 0.09.

Turning to C3A A11G G22C A41U, the self-cleavage stood at 0.04.

In the case of C3A C13G A39G, the self-cleavage stood at 0.32.

Consider C3A A14U A41U, for which the self-cleavage came out at 0.12.

On to C3A A24U A26G, for which the self-cleavage was 0.33.

On to C3A C23U U38C, for which the self-cleavage was 0.37.
